Assay results as given in PubChem BioAssay AID1745853 (National Center for Advancing Translational Sciences (NCATS), 2022).
The other results are listed elsewhere or left out. The main result of the screen is listed elsewhere. These columns were measured beside it and carry no call.

How the values were obtained:
Assay in all cases: Primary Screen for Target Class Profiling of Small Molecule Inhibitors of Methyltransferases
[1] = biological target: Glycine N-methyltransferase (Homo sapiens) (UniProt Q14749); conditions: purified enzyme, MTase-Glo SAH luminescence; measured here: GNMT inhibition; at 40 µM; stronger effect = lower value
Method in brief: (§1)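 Each enzyme was reacted with SAM and its substrate, with compounds tested once at 40 uM; SAH formed was read by MTase-Glo luminescence.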

[2] = biological target: Guanidinoacetate N-methyltransferase (Homo sapiens) (UniProt Q14353); conditions: purified enzyme, MTase-Glo SAH luminescence; measured here: GAMT inhibition; at 40 µM; stronger effect = lower value
Method in brief: as §1

[3] = biological target: Histamine N-methyltransferase (Homo sapiens) (UniProt P50135); conditions: purified enzyme, MTase-Glo SAH luminescence; measured here: HNMT inhibition; at 40 µM; stronger effect = lower value
Method in brief: as §1

[4] = biological target: Nicotinamide N-methyltransferase (Homo sapiens) (UniProt P40261); conditions: purified enzyme, MTase-Glo SAH luminescence; measured here: NNMT inhibition; at 40 µM; stronger effect = lower value
Method in brief: as §1

[5] = biological target: Phenylethanolamine N-methyltransferase (Homo sapiens) (UniProt P11086); conditions: purified enzyme, MTase-Glo SAH luminescence; measured here: PNMT inhibition; at 40 µM; stronger effect = lower value
Method in brief: as §1
% is set by controls: 0 for no effect and ±100 for the full control effect.

| Structure (SMILES) | activity change, negative = inhibition [1] [%] | activity change, negative = inhibition [2] [%] | activity change, negative = inhibition [3] [%] | activity change, negative = inhibition [4] [%] | activity change, negative = inhibition [5] [%] |
| --- | --- | --- | --- | --- | --- |
| CCOCCCN1C(=O)c2ccc(-c3ccco3)n2CC1(C)C(=O)NC1CCCCCC1 (stereo not given) | -0.154 | 0 | 5.18 | 4.72 | 1.05 |
| O=C(C[C@@H]1CCNC[C@@H]1Cc1cc(CN2CCOCC2)on1)N1CCN(c2ccc(F)cc2)CC1 | -7.18 | -9.46 | -4.69 | -17.4 | -14.3 |
| Cc1noc(C2CCCCN2C(=O)c2ccoc2)n1 (stereo not given) | 2.71 | -7.58 | -1.57 | -10.9 | -7.27 |
| CC1CC(C)CN(S(=O)(=O)c2ccc3c(c2)oc(=O)n3CC(=O)NC(C)c2ccccc2)C1 (stereo not given) | -7.03 | 0 | 5.87 | 2.81 | 0.401 |
| CN(c1ccccc1)c1cc(=O)c2ccnc(-c3cncnc3)c2o1 | -7.99 | -4.33 | -10.7 | -12.5 | -2.99 |
| Cc1cc(CC(=O)N2C[C@@H](COCC3CC3)[C@H](c3ccncc3)C2)on1 | 0.329 | -8.34 | 1.02 | -0.2 | 1.13 |
| O=C(c1ccnc(-c2ccncc2)c1)N1CCCC1 | -4.2 | -1.77 | -2.02 | -7.93 | -14.1 |
| CC(=O)N1CCN(C(=O)c2cn3cc(-c4ccc(F)cc4)sc3n2)CC1 | -6.47 | -10.5 | -4.01 | -14.4 | -12.7 |
| CC(=O)[C@H]1CC[C@H]2[C@@H]3CCC4=CC(=O)CC[C@]4(C)[C@H]3CC[C@]12C | -1.6 | 12.7 | 6.03 | -15.3 | -0.229 |
| Cn1cc(CNCC2CCN(c3ncc(C(=O)NO)cn3)CC2)c2ccccc21 | 1.78 | – | -13.4 | 0.79 | 9.53 |
| C[N+]1(C)[C@@H]2CC[C@H]1CC(OC(=O)C(O)c1ccccc1)C2 (stereo not given in full) | 6.18 | 6.29 | 5.61 | -5.51 | 5.34 |
| CNC(=O)CCn1ccc2cc(S(=O)(=O)N3CCCCC3)ccc21 | 5.16 | 1.22 | 3.25 | 6.74 | 2.42 |
| COCCNC(=O)c1ccc(-c2ccc(N3CCCCC3)nc2)cc1 | -7.49 | -6.59 | -3.5 | -8.16 | -4.72 |
| CC(=O)N1CCN(c2ccc(OC[C@H]3CO[C@](Cn4ccnc4)(c4ccc(Cl)cc4Cl)O3)cc2)CC1 | -3.6 | 11.8 | -0.364 | -12 | 3.74 |
| COCCCNC(=O)C1(C)Cn2nc(-c3ccccc3)cc2C(=O)N1Cc1ccc(Cl)cc1 (stereo not given) | -5.39 | 3.21 | -0.796 | -3.57 | -2.81 |
| CCc1ccc(CNC(=O)c2ccc3c(=O)nc4c(-c5ccccc5)n[nH]n4c3c2)cc1 | -9.29 | 0.671 | -2.84 | -10.9 | -5.23 |
| CCC(C)NC(=O)c1ccc2c(=O)n(C(C)C)c3nn(CC(=O)c4cc(C)ccc4C)c(=O)n3c2c1 (stereo not given) | 2.03 | 0.561 | 0.994 | -7.13 | -3.29 |
| CC1CC2C3CCC4=CC(=O)C=C[C@]4(C)[C@@]3(F)[C@@H](O)C[C@]2(C)[C@@]1(O)C(=O)CO (stereo not given in full) | -5.54 | 4.21 | -1.62 | -6.8 | 2.36 |
| Oc1cccc(Nc2ccnc3[nH]c4ccccc4c23)c1 | – | -0.867 | – | -76.3 | -11.8 |
| CC1(C(=O)NC2CCCCCC2)Cn2c(ccc2-c2ccco2)C(=O)N1CCCN1CCOCC1 (stereo not given) | 6.51 | 3.1 | 7.68 | 9.18 | 2.31 |
| COc1ccc(Cl)cc1[C@@]1(F)C(=O)Nc2cc(C(F)(F)F)ccc21 | 6.38 | 6.4 | 5.24 | -29.5 | -2.99 |

| Structure (SMILES) | activity change, negative = inhibition [1] [%] | activity change, negative = inhibition [2] [%] | activity change, negative = inhibition [3] [%] | activity change, negative = inhibition [4] [%] | activity change, negative = inhibition [5] [%] |
| --- | --- | --- | --- | --- | --- |
| Cc1noc(-c2cccc(OC3CN(C(=O)c4ccco4)C3)c2)n1 | -3.76 | 1.92 | -0.363 | -0.983 | 17.1 |
| CC(C)(C)n1nc(Cc2cccc3ccccc23)c2c(N)ncnc21 | – | 2.06 | – | -42 | -20.2 |
| CC1CCCCC1NC(=O)C1(C)Cn2c(nc3ccccc32)C(=O)N1Cc1ccccc1Cl (stereo not given) | -3.23 | 3.99 | -5.68 | 2 | -3.48 |
| CC(=O)N1CCc2[nH]cnc2C12CCN(C(=O)CCn1nnnc1C)CC2 | 1.58 | 2.33 | 1.81 | -2.65 | 0.228 |
| CC1CCN(CC2CCCN(C(=O)COc3ccc(F)cc3)CC2)CC1 (stereo not given) | -3.28 | -3.11 | -18.4 | -0.467 | 8.6 |
| O=CN1CCCC(n2cnc3cccnc32)C1 (stereo not given) | 0.484 | -6.3 | 2.66 | -5.01 | -1.07 |
| C=C(CO)C12OC1C1(C)C(=CC2=O)C(O)C(O)CC1C (stereo not given) | -0.384 | -6.44 | 4.06 | -15 | -2.38 |
| COc1ccncc1C(=O)NC(=O)Nc1ccc(-c2ccccc2)c(C(F)(F)F)c1 | 0.232 | 2.85 | 6.81 | -23.3 | 1.62 |
| O=c1[nH]c(=S)[nH]c(-c2ccccc2)c1Cc1c(O)ccc2ccccc12 | -58.6 | 3.65 | -6.65 | -12.3 | 2.86 |
| CN1CCCCCCN(C(=O)NCc2ccccc2)CCC1=O | -1.27 | -1.22 | -0.547 | -3.25 | -0.858 |
| C=C(C(=O)O)[C@@H]1CC[C@@]2(C)CC[C@H](O)[C@@]2(C(C)=O)C1 | -4.16 | -7.48 | 5.26 | -17.2 | -0.953 |
| O=C(Cn1nc2n(Cc3ccc(F)cc3)c(=O)c3ccccc3n2c1=O)Nc1ccccc1F | -6.09 | -3.26 | -0.653 | -9.15 | -5.7 |
| c1nc(N2CCOCC2)c2c3c(sc2n1)CN(CC1CCCCC1)CC3 | -5.5 | -8.76 | -5 | -48.9 | -10.8 |
| Cc1ccc(CCNC(=O)CNC(=O)C2(C)Cn3c(cc4ccccc43)C(=O)N2C)cc1 (stereo not given) | -0.33 | 3.97 | 2.51 | 5.55 | 2.6 |
| Cc1ccc(Cn2c(=O)c3ccccc3n3c(CCC(=O)N4CCN(c5cccc(C)c5C)CC4)nnc23)cc1 | 3.65 | -3.38 | 11.9 | -0.424 | -3.28 |
| CC1(C(=O)NC2CCCCCC2)Cn2c(ccc2-c2ccco2)C(=O)N1Cc1cccs1 (stereo not given) | -5.54 | 4.64 | -5.4 | -17 | -3.4 |
| COc1c2c(c(C)c3c1C(=O)OC3)OC1(C)CC(O)C(C(C)(C)O)C(C)(CCC(=O)O)C1C2 (stereo not given) | -2.03 | 4.79 | 6.96 | -7.95 | 2.57 |
| CC(C)CNC(=O)c1ccc2c(=O)n(Cc3ccccc3)c3nn(Cc4cccc(F)c4)c(=O)n3c2c1 | -8.07 | -2.78 | -3.74 | -3.53 | -3.31 |
| COc1ccc(NC(=O)CSc2nnc3n(CCc4ccccc4)c(=O)c4ccccc4n23)cc1 | 5.55 | 1.36 | 10.1 | 4.91 | 8.11 |
| Cc1[nH]c2ccccc2c1CC(=O)N[C@@H](Cc1ccccc1)C(=O)N(C)c1ccccc1 | -4.76 | -3.18 | 4.11 | -26.9 | -6.23 |
| CC1CCC(NC(=O)Cn2ccc3cc(S(=O)(=O)N4CCCCC4)ccc32)CC1 (stereo not given) | -0.589 | 5.11 | -2.54 | -4.84 | -8.36 |

| Structure (SMILES) | activity change, negative = inhibition [1] [%] | activity change, negative = inhibition [2] [%] | activity change, negative = inhibition [3] [%] | activity change, negative = inhibition [4] [%] | activity change, negative = inhibition [5] [%] |
| --- | --- | --- | --- | --- | --- |
| CN1C(=O)c2cc(C(=O)Nc3ccccc3Cl)nn2CC1(C)C(=O)NC1CCCCCC1 (stereo not given) | -1.57 | 0.174 | 0.307 | -4.57 | -1.06 |
| CC(C)(CN1CCC(Cc2ccc(C(=O)O)cc2)C1)N1CCOCC1 (stereo not given) | -2.55 | -7 | -2.32 | -6.49 | -4.54 |
| COCC(=O)N1CCN(Cc2ccccc2-c2ccc(C)c(Cl)c2)CC1 | -2.99 | 1.02 | -2.73 | -7.39 | -2.66 |
| C[C@]12CC[C@@H]3c4ccc(O)cc4CC[C@H]3[C@@H]1CC[C@@H]2O | -34.7 | 10.5 | 5.61 | -13.9 | -2.23 |
| COc1cccc(CNC(=O)C2(N3C[C@@H](C)O[C@@H](C)C3)Cc3ccccc3C2)c1 | -9.59 | -9.63 | -6.27 | -20.5 | -2.67 |
| Cc1ccc(C(=O)Cn2nc3n(C(C)C)c(=O)c4ccc(C(=O)NC(C)C)cc4n3c2=O)c(C)c1 | 3.71 | 0.613 | 9.02 | 2 | 6.31 |
| CCC/C=C1\OC(=O)C2=C1CCC(O)C2O (stereo not given) | 0 | 0.198 | 5.46 | -13.2 | 4.44 |
| CCN(CCNC(=O)Nc1ccccc1Br)c1cccc(C)c1 | 1.52 | 4.49 | -3.17 | -14.8 | -10.2 |
| COc1c(C)c2c(c(O)c1C/C=C(\C)CC/C=C(\C)CCC(=O)O)C(=O)OC2 | 0 | -3.78 | -1.57 | -21.5 | -3.03 |
| CC1c2cccn2CCN1C(=O)Nc1ccccc1F (stereo not given) | -0.802 | 0 | 1.81 | -4.42 | -0.386 |
| CCC(C)NC(=O)c1ccc2c(=O)n(C(C)C)c3nn(Cc4cccc(C)c4)c(=O)n3c2c1 (stereo not given) | -4.81 | 0.999 | -4.11 | -3.32 | -2.16 |
| Cc1c(NC(=O)N2CCOCC2)ccc2c1c1ccccc1n2C(C)C | 1.65 | -1.14 | 10.8 | -23.1 | -2.49 |
| NC(=O)[C@@H](Cc1ccccc1)NC(=O)C1=C[C@@H](NC(=O)CS(=O)(=O)c2ccccc2)[C@@H](O)[C@H](O)C1 | -8.46 | -4.92 | -4.83 | -8.34 | -8.27 |
| O=C(NCCc1ccccc1)c1nc2sccn2c1-c1cccnc1 | -9.24 | -12.5 | -4.04 | -16.7 | -11 |
| COc1ccc(CN2C(=O)c3cc4ccc(OC)cc4n3CC2(C)C(=O)NC2CCCCC2)cc1 (stereo not given) | 3.68 | 5.57 | 7.56 | -1.92 | 1.39 |
| CC(C)c1noc(-c2cn(C3CCCN(C(=O)c4ccc[nH]4)C3)nn2)n1 (stereo not given) | -2.98 | 0.62 | -1.08 | 0.272 | 8.81 |
| CN1C2CCC1CC(OC(c1ccccc1)c1ccccc1)C2 (stereo not given) | 2.18 | 9.05 | -37.4 | -18.3 | 3.61 |
| COC(=O)c1ncn2c1C(=O)N(Cc1cccnc1)C(C)(C(=O)NCc1ccccc1OC)C2 (stereo not given) | 0.112 | 1.5 | 13.1 | 10.1 | 10 |
| O=C(C1CCc2nnc(-c3ccc(Cl)cc3Cl)n21)N1CCCC1 (stereo not given) | -6.71 | -7.8 | -3.38 | -12.3 | -3.89 |
| CC(C)OCCCNC(=O)c1cc2n(n1)CC(C)(C(=O)NCc1ccccc1)N(C)C2=O (stereo not given) | -1.32 | -3.18 | 3.62 | -2.87 | -4.64 |
